# Data reported in PubChem BioAssay AID463173 (ICCB-Longwood Screening Facility, Harvard Medical School, 2010).
# The campaign covered roughly 52,000 compounds. About 4,300 (8.3%) were called active. Rule as the data show it: active = survival mostly below about 52% (no sharp cut-off); inactive = mostly above about 56%. Some of the results follow.
# Tested on: DeltatarO mutant
# Experiment: growth inhibition of S. aureus wild type versus tarO mutant, primary screen, teichoic acid synthesis inhibitors, RN4220, OD600 (AID 463173)
# Conditions: OD600, 18 h, active compounds read low, screened at 18.75 µg/mL (by protocol)
row,SMILES,survival
1,CCOc1ccccc1NC(=O)C(=O)NCC(c1cccnc1)N1CCN(c2ccccc2)CC1 (centres undefined),inactive: 54%
2,Cc1ccc(C=C2C(=O)N(C)C(=O)N(C)C2=O)cc1,inactive: 82%
3,O=C1C2CCCN2C(=O)N1c1ccc(Br)cc1 (centres undefined),inactive: 108%
4,Cc1ccc(CNC(=O)c2ccc(NC(=O)c3nsc4ccccc34)cc2)cc1,inactive: 83%
5,O=C(Nc1ccc2nc(SCC(=O)N3CCc4ccccc43)sc2c1)c1ccc(Cl)cc1,inactive: 80%
6,O=C(CSc1nc(-c2cccs2)cc(C(F)(F)F)n1)Nc1ccccc1Cl,inactive: 121%
7,Cc1ccccc1NC(=O)CSc1nc2ccc(NC(=O)c3ccco3)cc2s1,inactive: 57%
8,COC(=O)C1(CO)NC(c2ccc(Cl)cc2)C2C(=O)N(C)C(=O)C21 (centres undefined),inactive: 66%
9,Clc1ccc(-c2noc3ncnc(N4CCCCC4)c23)cc1,inactive: 86%
10,CCOc1cc(Cl)c(S(=O)(=O)n2cc(C)nc2CC)cc1Cl,active: 3%
11,CN(C)c1ccc(CNS(=O)(=O)c2csc(C(N)=O)c2)cc1,inactive: 60%
12,COc1cccc(NC(=O)Nc2cc(-c3cn4cccnc4n3)ccc2OC)c1,inactive: 70%
13,CCn1cc2nc(SCc3ccccc3)n(Cc3ccc(C)cc3)c(=O)c2n1,inactive: 93%
14,O=C(NCC(c1ccco1)S(=O)(=O)c1cccs1)c1ccc(C(F)(F)F)cc1 (centres undefined),inactive: 78%
15,CCOc1ccc(C(CC(=O)Nc2ccc(C(=O)OC)cc2)N2Cc3ccccc3C2=O)cc1OC (centres undefined),inactive: 73%
16,COc1cccc(NC(=O)c2oc3ccc(S(=O)(=O)N4CCC5(CC4)OCCO5)cc3c2C)c1,inactive: 105%
17,CC(C)(C)c1ccc(OCc2cc(=O)n3c4c(sc3n2)CCCC4)cc1,inactive: 88%
18,COc1ccc(-c2noc(CSc3nnc(C)n3-c3ccc(C)cc3)n2)cc1,active: 57%
19,COc1ccc(N2CC(C(=O)Nc3ccccc3-c3nc(-c4ccc(C)cc4)no3)CC2=O)cc1 (centres undefined),active: 54%
20,O=C(NCCOc1ccccc1Cl)c1ncn[nH]1,inactive: 87%
21,Cn1c(=O)c2c(nc(NCc3ccccc3)n2Cc2ccc(Cl)c(Cl)c2)n(C)c1=O,inactive: 42%
22,COc1ccc(C(=O)NCCc2nc3ccccc3[nH]2)cc1,inactive: 127%
23,CCCSc1nc2c(c(=O)[nH]1)C(c1ccc(O)c(OCC)c1)CC(=O)N2 (centres undefined),inactive: 112%

row,SMILES,survival
1,CCc1ccccc1NC(=O)COC(=O)c1cn(CC)c2nc(C)ccc2c1=O,inactive: 81%
2,CCCCOC(=O)c1ccc(Nc2nc3ccc(C)cc3n3cnnc23)cc1,inactive: 75%
3,CN(C)c1ccc(NC(=O)C2(c3cccs3)CCOCC2)cc1,inactive: 117%
4,O=C(Nc1cc(Cl)ccc1O)c1cc2nc(-c3ccc4c(c3)OCO4)cc(C(F)(F)F)n2n1,inactive: 86%
5,O=C(COc1ccc(F)cc1)OCc1cc(=O)n2nc(C3CC3)sc2n1,inactive: 83%
6,Cc1ccc(CCNC(=O)C2CCCN(S(=O)(=O)c3ccc4c(c3)oc(=O)n4C)C2)cc1 (centres undefined),inactive: 86%
7,CCOc1ccccc1Nc1nc(N)nc(CN(C)C2CCCCC2)n1,inactive: 86%
8,CCc1ccc(-n2nc(C)c3c(C)cc(=O)n(CC(=O)N(CC)Cc4ccccc4)c32)cc1,inactive: 90%
9,CCc1ccc(C(=O)c2cn(Cc3ccccc3)c3cc(OC)c(OC)cc3c2=O)cc1,inactive: 58%
10,Oc1c(C(c2ccc(Cl)cc2Cl)N2CCCC2)sc2nc(-c3ccco3)nn12 (centres undefined),inactive: 68%
11,COc1ccccc1NC(=O)CSc1nc(-c2cccc(Cl)c2)nc2c1Cc1c(CO)cnc(C)c1O2,inactive: 87%
12,CCOc1ccc(CCNC(=O)CCSCc2cccc(Cl)c2)cc1OCC,inactive: 81%
13,O=C(CC(=O)Nc1ccccc1F)Nc1ccc2nc3n(c(=O)c2c1)CCCCC3,inactive: 92%
14,Cc1ccc(-c2nc(SCC(=O)Nc3cc(C)on3)c3c(=O)n(C)c(=O)n(C)c3n2)cc1,inactive: 83%
15,Cc1cccc(N2CCN(C(=O)c3ccc4c(c3)N(Cc3cccc(Cl)c3)C(=O)c3ccccc3S4=O)CC2)c1C (centres undefined),inactive: 118%
16,O=C(CSCc1ccc(F)cc1)N1CCc2c([nH]c3ccccc23)C1c1ccccc1 (centres undefined),inactive: 101%
17,COC(=O)C1C2C=CC3(CN(C4CCCC4)C(=O)C13)O2 (centres undefined),inactive: 66%
18,CCCOc1ccc(Cn2c(=O)sc3ccccc32)cc1,active: -1%
19,Cc1cc(F)ccc1NC(=O)CN1C(=O)CCc2cc(S(=O)(=O)N3CCOCC3)ccc21,inactive: 76%
20,Cc1ccc(-n2ncc(C(=O)N(C)Cc3ccccc3)c2-n2cccc2)cc1,inactive: 71%
21,Cc1cc(Br)ccc1NC(=O)C(NS(=O)(=O)c1cccs1)c1ccccc1 (centres undefined),active: 31%
22,COc1ccc(Cl)cc1NC(=O)c1cc2nc(-c3ccc(C)cc3)cc(C(F)(F)F)n2n1,inactive: 78%
23,CC(CNC(=O)c1cc2ccccn2n1)c1ccccc1 (centres undefined),inactive: 95%

row,SMILES,survival
1,NS(=O)(=O)c1ccc(CCNC(=O)CCn2c(=O)c3cccn3c3cccnc32)cc1,inactive: 95%
2,COc1ccccc1N1CCN(CC(N)=O)CC1,inactive: 74%
3,COc1cccc(CNC(=O)c2ccc3c(c2)sc2nc(-c4ccccc4)cn23)c1OC,inactive: 55%
4,CCOc1ccccc1CNC(=O)c1cc2oc3ccccc3c2n1CC,active: 2%
5,Cc1ccc(-c2nc3scc(CCNS(=O)(=O)c4c(C)noc4C)n3n2)cc1,inactive: 117%
6,CSc1nc(C)cc(Nc2cccc(C(=O)O)c2)n1,inactive: 63%
7,N#Cc1ccc(S(=O)(=O)N2CCNCC2)cc1,inactive: 98%
8,CCOC(=O)C(C)Nc1ncnc2onc(C)c12 (centres undefined),inactive: 53%
9,COc1cc(NC(=O)CCCN2C(=O)CCn3nc(-c4cn(C)c5ccccc45)cc32)cc(OC)c1,inactive: 126%
10,O=C(c1cnc(N2CCCCC2)c2ccccc12)N1CCN(c2ccc(F)cc2)CC1,inactive: 79%
11,Fc1ccc(Nc2nc(-c3ccc(F)cc3)c3c(n2)-c2ccccc2OC3)cc1,inactive: 56%
12,CCC(=O)Nc1ccc2nc(C3CC3)n(Cc3ccc(Cl)cc3)c(=O)c2c1,inactive: 111%
13,Cc1c(NC(=O)c2ccc(-c3ccc(F)cc3)o2)cccc1-c1nc2ncccc2o1,inactive: 55%
14,Cc1sc2c(c1C)c(=O)n(-c1ccc(Cl)cc1)c(=O)n2CC(=O)c1ccccc1,inactive: 86%
15,COc1cccc(C(=O)Nc2ccc3nc(SCC(=O)N4CCc5ccccc54)sc3c2)c1,inactive: 59%
16,CCN(CC)S(=O)(=O)c1ccc(N(C(=O)Cn2nnc3ccccc32)C(C(=O)NC2CCCC2)c2ccco2)cc1 (centres undefined),inactive: 77%
17,CC1CCc2nc(NC(=O)Cc3ccc(Cl)cc3)sc2C1 (centres undefined),active: 46%
18,CCOc1cccc(C2c3[nH]c4ccccc4c3CCN2C(=O)Cc2cccc(OCC)c2OCC)c1 (centres undefined),inactive: 80%
19,Cc1cc2c(cc1S(=O)(=O)CCC(=O)N(C)Cc1ccccc1)OCC(=O)N2,inactive: 81%
20,Cc1cc(C)cc(NC(=O)c2cc3c(=O)n(Cc4ccco4)ccc3nc2C)c1,inactive: 73%
21,CCOc1ccc(CNC23CN4CN(CN(C4)C2)C3)cc1,inactive: 79%
22,Cc1nc2c(-c3ccc(F)cc3)c(C)nn2c(C)c1CCC(=O)NCc1cccc(Cl)c1,inactive: 78%
23,CCC(=O)N1CCc2cc(Br)cc(S(=O)(=O)N3CCN(c4cccc(Cl)c4)CC3)c21,inactive: 48%

row,SMILES,survival
1,O=C(OCC1CCCO1)c1ccc2c(c1)N(Cc1cccc(F)c1)C(=O)c1ccccc1S2(=O)=O (centres undefined),inactive: 94%
2,COc1cccc(N2C(=O)CSC23C(=O)N(Cc2ccccc2F)c2ccccc23)c1 (centres undefined),inactive: 67%
3,O=C(c1ccccc1)N1CCN(S(=O)(=O)N2CCOCC2)CC1,inactive: 73%
4,Cc1cccc(NC(=O)C2CCN(S(=O)(=O)c3c(C)noc3/C=C/c3ccco3)CC2)c1C,inactive: 87%
5,COc1ccc(-c2nc(SCCOc3cc(C)ccc3C(C)C)n3[nH]c(=O)cc3n2)cc1,inactive: 55%
6,COc1ccc2c(CNCCc3ccccc3OC)c(C(=O)O)n(Cc3ccc(F)cc3Cl)c2c1,inactive: 109%
7,O=S(=O)(c1ccc(Nc2ccc(-c3ccccc3)nn2)cc1)N1CCCC1,inactive: 95%
8,CSc1cccc(NC(=O)N2CCN(S(=O)(=O)c3ccc4c(ccn4C)c3)CC2)c1,inactive: 58%
9,CC1=C(C(=O)OC2CCCC2)C(c2ccc(Cl)cc2)CC(=O)N1 (centres undefined),inactive: 86%
10,O=C(CSc1nc(-c2ccccc2)no1)N1CCN(c2ccc(F)cc2)CC1,inactive: 86%
11,COc1ccc(C2=NS(=O)(=O)N(C)C(C(=O)NC(C)c3ccccc3)=C2)cc1OC (centres undefined),inactive: 75%
12,Cc1cc(C)cc(NC(=O)CN(c2cccc(C)c2C)S(=O)(=O)c2ccccc2)c1,inactive: 87%
13,COc1ccc(CCNC(=O)c2cc(-c3ccc(C)c(C)c3)nc3ccccc23)cc1OC,inactive: 120%
14,CCCn1c2ccc(C)cc2c2nnc(SCCN3CCCCC3)nc21,inactive: 187%
15,Cc1ccc(S(=O)(=O)Nc2nc3n(n2)C(c2ccc(Cl)cc2)C=C(c2ccccc2)N3)cc1 (centres undefined),active: 2%
16,O=C(CN1C(=O)CC(c2ccco2)Sc2ccccc21)Nc1ccc(OC(F)(F)F)cc1 (centres undefined),inactive: 73%
17,Cc1ccc(NC(=O)[C@H](Cc2ccccc2)N2Cc3ccccc3C2=O)cc1F,inactive: 84%
18,COc1ccc(C(=O)NCC(c2cccs2)S(=O)(=O)c2cccs2)cc1 (centres undefined),inactive: 71%
19,CCOc1ccc(C2CC(=O)c3c([nH]c(C(=O)OC4CCCCCC4)c3C)C2)cc1 (centres undefined),inactive: 61%
20,CC1=C(C(=O)OC2CCCCCC2)C(c2c(Cl)cccc2Cl)CC(=O)N1 (centres undefined),active: 32%
